Assay results reported in the supplement of paper PMC3334620.
Whole data set: some 33,000 sequences, median “E-score (-0.5 to 0.5)” near -0.021, cut for the highest 2% near 0.32. The list shows a part of the results.

target: T1, Zap1 (UniProt P47043); assay: PBM E-score (8-mer binding enrichment) (E-score (-0.5 to 0.5)); higher = stronger / more preferred TF binding; most listed sequences are background and not binding sites; conditions: protein concentration: 200 nM; construct: GST-full length
T1 sequence: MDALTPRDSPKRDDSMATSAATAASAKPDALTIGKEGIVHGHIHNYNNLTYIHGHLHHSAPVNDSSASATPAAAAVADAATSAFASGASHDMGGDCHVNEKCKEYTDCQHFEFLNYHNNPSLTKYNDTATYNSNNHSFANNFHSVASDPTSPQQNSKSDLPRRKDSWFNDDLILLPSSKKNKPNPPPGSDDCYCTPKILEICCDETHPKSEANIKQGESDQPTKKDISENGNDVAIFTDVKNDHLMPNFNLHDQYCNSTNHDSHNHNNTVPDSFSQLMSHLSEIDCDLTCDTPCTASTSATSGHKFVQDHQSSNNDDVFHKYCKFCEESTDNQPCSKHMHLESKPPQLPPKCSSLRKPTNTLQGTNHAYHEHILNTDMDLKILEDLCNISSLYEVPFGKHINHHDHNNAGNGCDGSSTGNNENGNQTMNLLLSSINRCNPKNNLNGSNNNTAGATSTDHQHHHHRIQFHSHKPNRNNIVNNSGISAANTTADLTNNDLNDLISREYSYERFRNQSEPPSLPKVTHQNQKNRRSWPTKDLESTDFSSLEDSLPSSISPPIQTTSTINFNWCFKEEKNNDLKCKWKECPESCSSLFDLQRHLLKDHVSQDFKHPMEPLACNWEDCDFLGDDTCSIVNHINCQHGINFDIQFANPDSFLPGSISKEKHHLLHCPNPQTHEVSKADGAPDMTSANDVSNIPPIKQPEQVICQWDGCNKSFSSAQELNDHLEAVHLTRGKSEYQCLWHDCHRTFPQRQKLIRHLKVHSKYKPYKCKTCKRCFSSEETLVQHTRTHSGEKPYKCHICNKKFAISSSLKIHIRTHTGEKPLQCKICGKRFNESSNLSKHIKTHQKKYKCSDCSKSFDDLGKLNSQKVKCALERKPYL
Procedure, shortened: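 The E-score, a modified Wilcoxon-Mann-Whitney statistic, was computed by the Universal PBM Analysis Suite for every ungapped eight-base word pooled with its reverse complement. Scans behind it were normalised with masliner after bound GST-tagged yeast transcription factors were detected with fluorescent anti-GST. The proteins, at about 100-200 nM, had been applied to universal all-10-mer Agilent arrays made double-stranded by primer extension.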

Sequence	PBM E-score
AAATCCGG	-0.0744
AGGTAAAT	0.171
CGGGGCTC	-0.238
GGTGATAA	0.183
ACCAACCT	0.126
CTAAACAA	0.00266
ATCCCCCG	-0.219
CGTTAATC	0.0807
CGAGGGGA	-0.107
GCTATTAC	0.0241
GGGAATAC	-0.129
GGATGCCA	-0.224
GGTCAGTA	0.148
TAGCACTA	-0.0804
ACAGTCTA	-0.0889
CCACTTGA	0.0482
TCATAAAA	0.155
AAGCCCTC	-0.0682
CCGCGGGC	0.0551
CTAAATGA	0.00253
ATCAAGCC	-0.122
ACACATAC	-0.0756
AAAGTGGT	0.234
ATCTCTGA	-0.025
CCTAACCG	0.0149

Sequence	PBM E-score
GCTCTTCC	-0.0754
AAACCGAC	0.00118
CAAAACGG	0.099
ACTTGAAG	-0.0917
CGTGCCGC	-0.0682
ACACTGAG	-0.0926
ATTCATCG	-0.0186
GCAAACTA	0.127
CAGAAACA	0.267
AATCCGAT	0.106
GGACTGAA	0.00449
CCAGTGTC	-0.0887
ACACCTAA	0.0902
AGCGGTTC	0.164
ACGGAATG	-0.188
ACAGATGA	-0.133
AACACCCT	0.288
ACGGGGAA	-0.0799
AAACCAGA	0.165
AGCGATGC	-0.276
GCGTGGCC	0.166
ATTGGTAA	0.188
AGAATCAT	-0.0735
CTCGAGCA	0.00245
ACAAGTGC	-0.311

Sequence	PBM E-score
CGGCCTTA	0.0854
CTTCATCC	-0.303
GCACAGAA	-0.0835
ACTGGGAC	-0.0779
AGACGATC	-0.287
CTGCGTTC	0.0144
CATACCAA	0.0873
CCGGAGTA	0.013
GCACAGCA	-0.126
AACAACGT	-0.209
CCCGCGGG	0.247
ATCGTCTG	-0.168
GGACCGTA	-0.0636
ACGTGCCA	-0.203
GGCGGCCA	-0.00361
ATATTCGG	-0.0284
ATTTACGC	0.0102
TATACTAA	0.0714
GCTTGCTA	-0.16
AGTTGAGA	-0.158
CGTCAGTC	-0.206
GGCGCCAA	-0.0708
CGCACACA	-0.112
AAGTTTCA	0.142
CCCGACCC	0.136

Sequence	PBM E-score
ACTATATA	0.177
ACCGACAG	0.0825
ACCGAGTC	-0.145
CTGATAAA	0.121
AGGCCCAG	-0.304
GATAGCCA	-0.0965
CATGCTAC	-0.0845
CGTGCCCC	-0.311
CGCTACGA	-0.0679
CTGTGTGC	-0.142
CTCGAACC	0.0198
CACAGGAG	-0.0885
TAACAGTA	0.141
ACAGTCAA	-0.0971
CATTGTCG	-0.0394
AACACAAA	0.195
TCAAAGCA	0.0311
ACGTTACT	0.143
AGAGTAAA	0.106
GCGAGCTA	-0.123
ATAGTAAC	0.279
GGACGCAA	-0.12
ATGCGTCC	-0.215
CTGTGAAA	0.194
ATAGTTCG	0.0342

Sequence	PBM E-score
ACGCACGA	0.0571
CAGGCTAG	-0.141
CGTGTCAG	-0.0198
AAATTCCT	-0.0586
CCTCCAGC	-0.207
ATATACAT	0.0702
GAAACTAC	0.022
CATTGTAG	-0.0629
CTTGTTCC	-0.0975
ATTGTTTA	0.124
GAACACTA	0.0651
AGGTATTG	0.243
ACGACCTC	0.31
ACCAAAAC	0.207
ATGTCTCC	-0.249
ACCGGGAG	-0.081
TAACACTA	0.283
GGACCGGA	0.0344
AGGACCGG	-0.0908
GAATATCA	-0.106
CTGGACGC	-0.237
CGTGAAGA	0.00795
GGCAGCCA	-0.0786
CCTTCTTA	-0.0571
CAGATCCC	-0.232

Sequence	PBM E-score
CACAACCG	0.289
ATAAGATC	-0.0675
ATGTGGAC	-0.144
CTACTTGA	-0.122
GCTCTAGA	-0.277
ATGGACGA	0.07
TATTCCAA	0.0766
GTGGCGTA	-0.0831
TCGACCAA	0.0837
GCGTAGAC	-0.145
CTGTTACC	0.248
ACCGGCGC	-0.0444
ATGTTGTG	0.179
CATTCTTA	-0.0384
AGGAACTG	-0.148
ACCGCCAA	0.0445
CTCTGATC	-0.154
ATCCAAGA	0.0735
CATGCTGG	-0.0654
ACTTCGAC	-0.0812
CGCCAAAA	0.0978
ACGACAGA	-0.172
GACGAGCA	-0.253
ACTCCGCG	-0.106
GTGGAATA	-0.0633

Sequence	PBM E-score
TGAGATAA	-0.012
CCGTGCTC	-0.121
CCTCGTCC	-0.165
CCTCTGAA	-0.072
GGTATGAC	0.152
ATATGTTC	-0.0732
TTACAAAA	0.181
ATAATCAC	0.109
GGCCCAGA	-0.374
AAGCCGAT	-0.128
AGAAGATC	-0.214
CCCCGGGA	0.116
ACTACCCA	0.291
CCTGCGGC	-0.0665
AAACCACC	0.193
CCGAGCTC	-0.0305
AGCAACAT	-0.0906
CCAGTGCA	-0.0265
AGGTCATA	0.347
GGACTAAC	-0.0322
CAGTCGAG	-0.187
ACATAAAT	0.0708
GACCTGGA	0.0391
AACCTCCT	0.158
AAAGAATG	0.183

Sequence	PBM E-score
GCCCCACC	0.283
CAATCCGA	0.07
AGTGGCCC	0.108
AGCCTAAC	0.0792
CCTCAGGC	-0.0942
CGATAAAA	0.123
ACCCTTAC	0.29
CTTTCAAC	0.0851
AACCTTGC	0.305
ACATATGA	0.0879
GTCGTCCA	-0.123
AGGGTTAG	0.431
CGGACTCC	-0.104
AAGACCGG	0.102
CGATATAG	0.0443
CACGTCTG	-0.121
CAGCTAGG	-0.294
ACGTCACA	-0.0421
CGGTGAAC	-0.0916
GGGCGACC	-0.0599
GCGGAACA	-0.295
AAATACAC	0.0463
CAACTGCA	-0.0489
CACGCTCG	-0.113
CTTTGTTA	0.229

Sequence	PBM E-score
AGCGCCCC	-0.221
ACCCGTCA	0.186
AGTGCAAA	-0.0239
CGGGACCC	0.182
ATTATGAC	0.0175
CTTGAGGA	-0.0238
AATGGGAC	0.0748
CACGATCG	-0.0406
CAGGTGCA	-0.0246
GTGAGCAC	-0.142
CAACATAA	0.113
CAAATCGG	-0.0485
AGGGAATA	-0.054
TATATATA	0.37
ATGCATGG	0.0833
AGACCTCC	-0.175
ACGTACGC	-0.165
ATCTGGTA	0.189
GTAAGTTA	-0.0267
